In PubChem BioAssay AID624296 (National Center for Advancing Translational Sciences (NCATS), 2012):
The campaign covered roughly 350,000 compounds. About 9,900 (2.8%) were called active. The inconclusive results got no clear call from the source; some entries with a clear call stand among them for comparison. Calls come from the whole dose curve; as a rule, active = well fitted activation curve with a large enough effect; inconclusive = small, poorly fitted or top-dose-only effect; inactive = no such curve, though single readings can be large or run the other way. No potency is given beside an inconclusive call; the fits are too rough.

assay: A quantitative high throughput screen for small molecules that induce DNA re-replication in MCF 10a normal breast cells.; note: nearly all actives have a fitted effect of over 50% in size; for activity, positive = re-replication: % of control where 0% means no effect; conditions: MCF 10A DNA re-replication, Hoechst nuclear intensity, 48 h; activity, positive = re-replication: at 46.1 µM (top of the series)
Potency is the fitted concentration of half-maximal effect; tags give direction and shape of the fitted curve.

Row | SMILES | Potency | activity, positive = re-replication
1 | COc1ccc(CN2CCC(CO)(Cc3ccccc3C(F)(F)F)CC2)c(F)c1 | inconclusive [activator, single point] | –
2 | Cc1ccc(NC(=O)CO/N=C/c2ccc(N(C)C)cc2)cc1 | inconclusive [activator, full curve, poor fit] | –
3 | Cc1cccc(N=Nc2c(C)[nH]n(-c3ccccc3)c2=O)c1 | inconclusive [activator, partial curve, poor fit] | –
4 | O=C(Nc1ccc(Cl)c(-c2nc3ccccc3[nH]2)c1)c1cccnc1 | – | inactive: 1.41%
5 | CC(CNC(=O)c1ccc(C#N)cc1)NC(=O)c1ccc(C#N)cc1 (centres undefined) | – | inactive: -20.2%
6 | COC(=O)c1cc([N+](=O)[O-])c(-n2ccnc2)c([N+](=O)[O-])c1 | inconclusive [activator, single point] | –
7 | O=c1c2ccccc2nc(SCc2nc(-c3ccccc3)no2)n1-c1ccc(F)cc1 | inconclusive [activator, single point] | –
8 | CC(C)C[C@H](NC(=O)c1nc[nH]c1C(=O)NCC(=O)OC(C)(C)C)C(=O)OC(C)(C)C | – | inactive: -15.6%
9 | CC(C)OC(=O)c1ccc(NC(=S)NC(=O)c2cncc(Br)c2)cc1 | – | inactive: 16.2%
10 | COc1ccc(C(=O)NC(C(=O)OCC(=O)Nc2sccc2C(N)=O)C(C)C)cc1 (centres undefined) | inconclusive [activator, single point] | –
11 | CCOc1ccc2oc(C(=O)Nc3cc(C)ccn3)c(C)c2c1 | inconclusive [activator, partial curve, poor fit] | –
12 | O=C(NC1=NCCS1)C1CCN(S(=O)(=O)c2cc([N+](=O)[O-])ccc2Cl)CC1 | inconclusive [activator, single point] | –
13 | Cc1cc(N2C(=O)C(O)=C(C(=O)c3cc4ccccc4o3)C2c2ccc(Br)cc2)no1 (centres undefined) | inconclusive [activator, partial curve, poor fit] | –
14 | CCOc1ccccc1NC(=O)Nc1cccc(S(N)(=O)=O)c1 | – | inactive: -2.83%
15 | CCc1ccc(N(CC(=O)NC(C)C)C(=O)CCC(=O)Nc2ccccn2)cc1 | – | inactive: -4.93%
16 | O=C(N/N=C/c1ccccc1O)c1cccc2ccccc12 | – | inactive: -8.6%
17 | COc1ccccc1C(=O)NCCNc1nc2cc(C)cc(C)c2cc1C#N | inconclusive [activator, single point] | –
18 | COc1ccc(CCNC(=O)CCc2ccccc2O)cc1OC | inconclusive [activator, partial curve, poor fit] | –
19 | COc1cc2c3nnc(-c4ccc(F)cc4)c-3cn(Cc3ccccc3)c2cc1OC | inconclusive [activator, single point] | –
20 | Cc1cc(/C=N\NC(=O)COc2cccc3cccnc23)c(C)n1-c1ccccc1 | – | inactive: 25.6%
21 | CCOc1cc2c(cc1C(C)(C)C)NC(=O)CS2 | inconclusive [activator, single point] | –
22 | Cc1cc(=O)oc2cc(NC(=O)c3cccc(S(=O)(=O)N(C)C)c3)ccc12 | – | inactive: 1.15%
23 | Cc1ccccc1C(=O)Nc1ccccc1-c1nnn(CC(=O)Nc2ccc3c(c2)OCCO3)n1 | active: 23.1 µM | –

Row | SMILES | Potency | activity, positive = re-replication
24 | Fc1ccc(-c2csc(=S)[nH]2)cc1 | inconclusive [activator, single point] | –
25 | COc1ccc(/C=C(/NC(=O)c2ccc(OC)c(OC)c2)C(=O)NCCc2c[nH]c3ccccc23)cc1 | inconclusive [activator, partial curve, poor fit] | –
26 | Nc1nc(SCCO)[nH]c(=O)c1NC(=O)c1ccccc1F | – | inactive: 8.02%
27 | CCN(C(=O)c1c(-c2ccccc2Cl)noc1C)C1CCCCC1 | – | inactive: 12.9%
28 | Nc1ccc(N2CCCCC2)cc1N1CCCCC1 | active: 20.6 µM | –
29 | CCOc1ccccc1N(C)C(=O)Cn1ncc2c([nH]c3ccc(C)cc32)c1=O | inconclusive [activator, full curve, poor fit] | –
30 | COc1ccc(S(=O)(=O)N2CCOC2CNC(=O)C(=O)NCCCN2CCOCC2)cc1C (centres undefined) | inconclusive [activator, partial curve, poor fit] | –
31 | Cc1nn(-c2ccccc2)c(C)c1/C=N/NC(=O)c1cc(-c2ccc(Cl)s2)[nH]n1 | active: 3.66 µM | –
32 | C/C=C\C=C\C(=O)Nc1cccc(C2=NOC3(C2)C[C@@H](C(N)=O)N(C(=O)C(c2ccccc2)c2ccccc2)C3)c1 (some centres undefined) | inconclusive [activator, full curve, poor fit] | –
33 | COC(=O)c1c(NC(=O)c2cccnc2Cl)sc(C(=O)N(C)C)c1C | inconclusive [activator, partial curve, poor fit] | –
34 | COc1ccc(C2=CSC3=NCCN23)cc1Cl | inconclusive [activator, single point] | –
35 | COc1ccc(NC(=O)COC(=O)c2c(-c3ccccc3)noc2C)cc1 | inconclusive [activator, single point] | –
36 | C[C@]12CCC3C(CC[C@H]4CC(O)CC[C@]34C)C1CC/C2=N/O (some centres undefined) | inconclusive [activator, partial curve, poor fit] | –
37 | O=C(COc1coc(CN2CCCc3ccccc32)cc1=O)Nc1ccccc1 | – | inactive: 12%
38 | COC(=O)c1ccccc1NC(=O)c1cc2nc(C3CC3)cc(C(F)(F)F)n2n1 | – | inactive: -20.3%
39 | O=C(O)c1cccc(NC2=C(Cl)C(=O)c3ccccc3C2=O)c1 | inconclusive [activator, partial curve, poor fit] | –
40 | CC(=O)c1c(C)[nH]c(C(=O)OC(C)C(=O)Nc2ccc(C)c(S(=O)(=O)N3CCOCC3)c2)c1C (centres undefined) | – | inactive: 4.15%
41 | COc1cc(OC)c(NS(=O)(=O)c2ccc(Cl)c(C(=O)OC(C)C(=O)N3CCCC3)c2)cc1Cl (centres undefined) | inconclusive [activator, single point] | –
42 | O=C(c1cc2ccccc2oc1=O)N1CCSC1c1ccco1 (centres undefined) | inconclusive [activator, single point] | –
43 | O=C(NC1CCCCC1)c1ccc(CS(=O)Cc2ccccc2Cl)o1 (centres undefined) | inconclusive [activator, partial curve, poor fit] | –
44 | C=CCn1c(O)c(N=Nc2ccccc2C)c2ccccc21 | inconclusive [activator, single point] | –
45 | CSc1ncccc1C(=O)OCc1ccc(C#N)cc1 | inconclusive [activator, single point] | –
46 | CCCCn1c(N)c(N(CCC(C)C)C(=O)C2CCCC2)c(=O)[nH]c1=O | – | inactive: 11.5%

Row | SMILES | Potency | activity, positive = re-replication
47 | O=C(NCC1CCCCC1)c1cc(S(=O)(=O)N2CCOCC2)ccc1F | – | inactive: -7.47%
48 | CCC(SC1=NCCS1)C(=O)Nc1nnc(-c2ccccc2OC)s1 (centres undefined) | – | inconclusive: 54.4% [activator]
49 | CCC(C)(C)NC(=O)CN(C(=O)c1snc(C(N)=O)c1N)c1ccc2c(c1)OCCO2 | inconclusive [activator, partial curve, poor fit] | –
50 | COc1ccc(CCNC(=O)c2nc(-c3cccs3)no2)cc1OC | – | inactive: 14.9%
51 | O=C(c1ccc(F)cc1)N1CCN=C1c1ccccc1 | inconclusive [activator, single point] | –
52 | CCNS(=O)(=O)c1ccc2c(c1)n(C)c(=O)n2C | – | inactive: -3.73%
53 | CC(C)OC(=O)/C(=C/c1ccc2c(c1)c1ccccc1n2C)NC(=O)c1ccccc1 | inconclusive [activator, partial curve, poor fit] | –
54 | CC(=O)Nc1ccc(/C=C(\C#N)C(=O)NCc2ccccc2)cc1 | – | inactive: 0.591%
55 | C=C(C)Cn1c(CCNC(=O)c2ccco2)nc2ccccc21 | inconclusive [activator, partial curve, poor fit] | –
56 | CCOC(=O)CC(=O)CSc1nc(-c2ccc3c(c2)OCO3)cc(C(F)(F)F)c1C#N | active: 6.31 µM | –
57 | O=c1c2sc3nc(N4CCOCC4)c4c(c3c2ncn1CCc1ccccc1)CCCC4 | inconclusive [activator, full curve, poor fit] | –
58 | COc1ccc(NC(=O)NC2(C(=O)N3CCCC(C)C3)CCCCC2)cc1 (centres undefined) | inconclusive [activator, partial curve, poor fit] | –
59 | COc1cc(C)nc(NC(=S)N(C)C(=O)c2ccccc2)n1 | – | inactive: -0.244%
60 | CCC(=O)c1ccc(OCC(=O)N2CCc3cc(OC)c(OC)cc3C2)cc1 | – | inactive: -4.08%
61 | Cc1ccnc(N2CCCC(C(=O)NCc3cccs3)C2)n1 (centres undefined) | inconclusive [activator, single point] | –
62 | COCc1cc(=O)n2[nH]cc(-c3ccccc3)c2n1 | inconclusive [activator, single point] | –
63 | CCOc1ccc(C(=O)C2CCN(CC(=O)Nc3nccs3)CC2)cc1 | inconclusive [activator, single point] | –
64 | Cc1cc(N2CCCC2)nc2c(C)cccc12 | inconclusive [activator, single point] | –
65 | CC1(C)CNC(=O)c2sc(NC(=O)c3ccccc3Cl)nc2C1 | – | inactive: -0.0556%
66 | COC(=O)[C@@H]1CC(O)CN1C(=O)C12CC3CC(CC(C3)C1)C2 (some centres undefined) | inconclusive [activator, partial curve, poor fit] | –
67 | Cc1ccc(C)c(S(=O)(=O)NCC(=O)OCC(=O)Nc2sccc2C(N)=O)c1 | – | inactive: -1.83%
68 | Cc1nc(NC(=O)CSc2nnc(-c3ccc4c(c3)OCO4)o2)c(Cl)cc1Cl | inconclusive [activator, single point] | –
69 | COCCNCCCCOc1ccc(Br)cc1C | inconclusive [activator, partial curve] | –
